“And” between values parts separate entries of the source, which are not always exact repeats. Equal values may be shown once. Among all 48,000 compounds or so, about 1,200 (2.5%) were called active. Roughly 2% stayed inconclusive and do not appear here.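 The calls were made as follows: active = activation of at least 60% and not above a set upper limit (about 1 call in 100 departs from these limits); inconclusive = activation of 40% to 60%, or above that upper limit; inactive = activation under 40%.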 Some of the results follow.

The assay addresses Probable G-protein coupled receptor 32 (Homo sapiens) (UniProt O75388). In words: qHTS for Agonists of Human Resolvin D1 Receptor DRV1. The note with it: CHO-K1 GPR32 beta-arrestin PathHunter luminescence, 90 min; at 76.9 µM; active compounds read high; zero percent set by DMSO-only wells. In short, it runs like this: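 Using DMSO wells as EC0, agonist-induced signal was taken as chemiluminescence from beta-Gal reconstituted upon beta-arrestin recruitment to GPR32 in CHO-K1 cells after 90 min compound treatment.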
Sequence of UniProt O75388 (O75388 whole entry, looked up): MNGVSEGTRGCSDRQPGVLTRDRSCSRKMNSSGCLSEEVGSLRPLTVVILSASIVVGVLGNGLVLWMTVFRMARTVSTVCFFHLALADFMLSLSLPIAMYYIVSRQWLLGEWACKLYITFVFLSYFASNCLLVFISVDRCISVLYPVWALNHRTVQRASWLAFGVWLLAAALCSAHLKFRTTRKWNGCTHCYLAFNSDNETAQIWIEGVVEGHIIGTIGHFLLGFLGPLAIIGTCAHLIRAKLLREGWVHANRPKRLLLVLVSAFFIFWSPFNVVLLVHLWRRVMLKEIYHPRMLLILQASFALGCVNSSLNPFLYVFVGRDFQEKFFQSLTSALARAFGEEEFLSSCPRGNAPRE
On to `CSc1cccc(NC(=O)CN2C(=O)COc3ccc(Cl)cc32)c1`, for which the activation is inactive: 26.2%. On to `CCOc1ccc(C(=O)N2CCC(c3nc4ccccc4o3)CC2)cc1`, for which the activation is inactive: -19.5%. Regarding `CCOc1ccc(NC(=O)CSc2nc3c(oc4ccccc43)c(=O)n2-c2ccccc2C)cc1`, the activation is inactive: -7.05%. Turning to `CC(NC(=O)c1ccc2c(c1)CCN2S(=O)(=O)c1ccc(Cl)cc1)c1ccccc1` (centres undefined), the activation was inactive: -10.6%. Turning to `CCCCc1ccc(NC(=O)c2cc3c(=O)n4ccccc4nc3s2)cc1`, the activation is inactive: 3.86%. As for `COc1ccccc1-c1nnc(SCC(=O)c2ccc(Cl)cc2)n1-c1ccccc1`, the activation was active: 79.5%. As to `Cc1ccc(NC(=O)NCCc2c(C)nn(C)c2C)cc1Cl`, the activation was inactive: 41.7%. `CCn1ccc2cc(S(=O)(=O)N3CCCN(C(=O)Nc4cccc(Cl)c4)CC3)ccc21`: the activation is inactive: 5.37%. For `COc1ccc(C2=NN(CC(=O)NCCc3ccc(OC)c(OC)c3)C(=O)CC2)cc1` the value was inactive: -10.7%. Consider `COc1ccc(N(C)C(=O)c2cn(C3CCCCC3)c(=O)c3c2c2ccccc2n3C)cc1`, for which the activation was inactive: -28.5%.

As for `CCOC(=O)c1c(S(=O)(=O)N2CCCC(C(=O)Nc3cccc(Cl)c3)C2)c(C)n(C)c1C` (centres undefined), the activation is inactive: -2.84%. Turning to `CCCCN(CC)CCCNC(=O)CCN1N=C(c2ccc(OC)cc2)CCC1=O`, the activation was inactive: -9.97%.

Take `COc1ccccc1NC(=O)C(=O)NCCc1csc(-c2cccc(F)c2)n1`: the activation was inactive: 0.802%. The value for `COc1ccc(NC(=O)c2cc(C3CC3)nc3c2c(C)nn3-c2ccccc2)cc1` was inactive: -22.8%. For `COc1ccccc1NC(=O)C1=C(C)Nc2ncnn2C1c1ccccc1C(=O)O` (centres undefined) the value was inactive: -2.86%; for `COc1ccc(-n2c(=O)c3c4c(sc3n(Cc3ccc(F)cc3)c2=O)CCCC4)c(OC)c1`, inactive: 25%. With `COc1cccc(CNC(=O)c2cc3c(s2)-c2ccccc2OC3)c1`, the activation was inactive: -9.13%. With `Cc1cc(N2CCCCC2)nc2ccc(NC(=O)c3cccc(Cl)c3)cc12`, the activation is inactive: -26.9%.

For `CCOc1ccc(CNS(=O)(=O)c2cc3c(cc2C)NC(=O)CO3)cc1OC`, the activation is inactive: -10.5%. `CCOc1ccccc1C(=O)Nc1ccc2nc(N(CC)CC)cc(C)c2c1`: the activation was inactive: -10.5%. Regarding `CN1C(=O)c2ccccc2Sc2ccc(NC(=O)c3ccccc3F)cc21`, the activation was inactive: -4.29%. Turning to `O=C1c2oc3ccccc3c(=O)c2C(c2ccccc2)N1Cc1ccc2c(c1)OCO2` (centres undefined), the activation is inactive: -2.25%.

Take `CCOC(=O)c1cccc(NC(=O)[C@@H](c2ccccc2)N2Cc3ccccc3C2=O)c1`: the activation was inactive: -6.38%. As to `Cc1cc(C)c(NC(=O)Cc2csc(C)n2)c(Cl)c1`, the activation is inactive: -14.2%. For `CCN1C(=O)c2ccccc2Sc2ccc(C(=O)NCCCN(CC(C)C)CC(C)C)cc21` the value was inactive: -25%. For `CC1COc2c(N3CCN(C)CC3)c(F)cc3c(=O)c(C(=O)O)cn1c23` (centres undefined), the activation is inactive: -37.8% and inactive: -0.885%. Take `COc1ccccc1CNc1ccc(-c2nc(-c3cccnc3)no2)cc1[N+](=O)[O-]`: the activation was inactive: -19.7%. For the molecule `CCOc1ccccc1C1C(C(=O)N2CCCCC2)=C(C)Nc2nc3ccccc3n21` (centres undefined), the activation was inactive: 9.74%. Take `CCOc1ccccc1NC(=O)c1nn(-c2ccc(C)cc2)c(=O)n(C)c1=O`: the activation is inactive: -3.24%.

As to `COC(=O)c1c(-c2cccs2)csc1NC(=O)COc1ccc(C(C)(C)C)cc1`, the activation was inactive: 5.81%. As to `O=C(NCC1CCN(Cc2cccc(Cl)c2)CC1)Nc1cc(Cl)ccc1Cl`, the activation was inactive: 6.7%. As for `COc1ccc(N(C)C(=O)CCn2cnc3onc(-c4ccc(F)cc4)c3c2=O)c(OC)c1`, the activation was inactive: 16%. For `COc1cccc(NC(=O)CN2C(=O)c3cccnc3Oc3ccc(Cl)cc32)c1` the value was inactive: -32.8%; for `CCc1ccc(NC(=O)c2sc(-n3nc(C)c(Cc4ccc(OC)cc4)c3C)nc2C)cc1`, inactive: 4.54%; for `COc1ccc(C2CC(=O)N(CC(=O)Nc3cc(C)ccc3C)c3ccccc3S2)cc1` (centres undefined), inactive: 5.06%. In the case of `CCCCN(CCCC)C(=O)c1cc2c(=O)n3cccc(C)c3nc2s1`, the activation is inactive: 28.4%. Regarding `N[C@@H](CSSC[C@H](N)C(=O)O)C(=O)O`, the activation was inactive: -69.3%.

Regarding `CCCCCS(=O)(=O)c1oc(-c2cccs2)nc1S(=O)(=O)c1ccc(C)cc1`, the activation is inactive: -15%.

`CC(C)(C)OC(=O)N1CCC(c2c(C(=O)N3CCC(c4ccccc4)C3)cnn2-c2cccc(Cl)c2)CC1` (centres undefined): the activation was inactive: -24.4%. Consider `Cc1cccc(OCC(=O)N(Cc2cccs2)c2ccc(Cl)cc2)c1C`, for which the activation was inactive: -4.73%. For the molecule `CCOc1ccc(CCNC(=O)Cn2nc(CC)n3c(cc4ccccc43)c2=O)cc1`, the activation is inactive: -4.49%. Regarding `COc1ccc(-c2c3c(=O)n(C)c(=O)n(C)c3c3n2-c2ccccc2NC3c2ccco2)cc1` (centres undefined), the activation is inactive: -7.65%. Regarding `COc1cc(C(=O)NCC(c2cccs2)S(=O)(=O)c2cccs2)cc(OC)c1OC` (centres undefined), the activation is inactive: 27.5%.

Turning to `Cc1cc(=O)n(CC(=O)N2CCN(c3ccccc3F)CC2)c2c1c(C)nn2C`, the activation was inactive: 40%. With `CCc1ccccc1NC(=O)c1cnc(N2CCCCC2)c2ccccc12`, the activation was inactive: 0.647%.

Regarding `CCOC(=O)c1[nH]c(C)c(CCC(=O)Nc2cc(C)ccc2OC)c1C`, the activation is inactive: -12.9%. As for `CCC(Sc1nc(-c2ccccc2F)nc2c1Cc1c(CO)cnc(C)c1O2)C(=O)Nc1cc(C)ccc1C` (centres undefined), the activation is inactive: 0.267%. For `CCOc1ccc(CCNC(=O)C2=C(C)C(=O)OC23CCCCC3)cc1` the value was inactive: -18.3%; for `Cc1ccccc1CN1CCC(CNC(=O)c2c(C)oc3ncnc(N4CCCCC4)c23)CC1`, inactive: -2.16%.

In the case of `CCN1C(=O)c2ccccc2S(=O)c2ccc(C(=O)N3CCN(c4cc(Cl)ccc4C)CC3)cc21` (centres undefined), the activation was inactive: -8.84%.

With `CN(Cc1ccccc1)C(=O)c1ccc2c(c1)N(Cc1ccccc1Cl)C(=O)c1ccccc1S2`, the activation was inactive: -27.6%. The value for `Fc1ccc(-c2noc3ncnc(NCc4ccc(Cl)cc4)c23)cc1` was inactive: -2.61%. Turning to `O=C(CCn1c(=O)c2cccn2c2cccnc21)NCc1ccc(F)cc1`, the activation was inactive: -13.4%. With `COc1cc(C2CC(=O)Oc3c2c(=O)n(C)c2ccccc32)ccc1O` (centres undefined), the activation was inactive: 12.6%.

For the molecule `Nc1ccc([N+](=O)[O-])c(C(F)(F)F)c1`, the activation was inactive: -37.8%. For the molecule `COc1ccc(-c2cc(C(C)=O)c(C)n2CCC(=O)Nc2cc(Cl)ccc2C)cc1`, the activation is inactive: -21.4%.

For the molecule `CCOC(=O)C1CCN(S(=O)(=O)c2ccc3c(c2)N(C)C(=O)CC(=O)N3C)CC1`, the activation was inactive: -0.982%. For the molecule `COc1ccc(C(=O)NC2(C(F)(F)F)C(=O)Nc3c2c(=O)[nH]c(=O)n3CCc2ccc(OC)c(OC)c2)cc1` (centres undefined), the activation was inactive: -1.72%. For `CCOC(=O)c1c(C)[nH]c(C)c1S(=O)(=O)N(C)CC(=O)Nc1ccc(C)cc1C`, the activation is inactive: -38.4%.

As for `O=C(COc1ccccc1)Nc1ccc2nc(SCCOc3ccccc3)sc2c1`, the activation is inactive: -4.95%. Turning to `Cc1ccc(Cl)cc1N1CCN(C(=O)c2ccc(CS(=O)(=O)c3ccccc3C)o2)CC1`, the activation was inactive: -2.62%. On to `Cc1ccc(NC(=O)Cn2c(=O)n(CC3CCCO3)c(=O)c3ccccc32)cc1` (centres undefined), for which the activation was inactive: -1.34%. Take `Cc1cc(C)c2oc(-c3cccc(NC(=O)COc4ccc([N+](=O)[O-])cc4)c3)nc2c1`: the activation is inactive: -13.3%. In the case of `COc1cc2nc(NC(=O)c3ccc(S(=O)(=O)N4CCOCC4)cc3)sc2cc1OC`, the activation is inactive: 25.3%. For `CCCS(=O)(=O)N1CC(=O)N(c2ccc(Cl)cc2C)C(C)(C(=O)NC2CCCC2)C1` (centres undefined), the activation was inactive: -5.28%.

On to `COc1ccc(NC(=O)CSC2=Nc3ccccc3C3=NC(CCC(=O)NC4CCCCC4)C(=O)N23)cc1` (centres undefined), for which the activation was inactive: -24.9%. With `N[C@@H](CSCCCO)C(=O)O`, the activation is inactive: -20.1%.

As to `CCOC(=O)c1cccc(NC(=O)CCn2c(-c3ccc(F)cc3)cc(C(=O)OCC)c2C)c1`, the activation was inactive: -29%. For `CC(=O)c1cccc(NC(=O)C2CCN(S(=O)(=O)c3ccc4c(c3)oc(=O)n4C)CC2)c1` the value was inactive: 13%.

As to `COc1c(C)cccc1C(=O)Nc1cccc2ccc(C)nc12`, the activation is inactive: -4.93%.

As to `O=C(CSCc1ccccc1Cl)N1CCN(c2ccc(Cl)cc2)CC1`, the activation is inactive: -17.5%.

Take `O=C(O)/C=C/c1cnc[nH]1`: the activation was inactive: -6.19%. The value for `O=C1CC[C@H](C(=O)N2CCCCC2)N1` was inactive: 2.09%; that for `COc1ccc(Cn2ccn(Cc3cccc(OC)c3)c(=O)c2=O)cc1` was inactive: -9.35%; that for `CCOC(=O)C1CCN(C(=O)c2ccc(-n3ccc4ccccc43)s2)CC1` was inactive: -23.9%. Regarding `Cc1cccc(NC(=O)N2CC(=O)Nc3sc4c(c3C2c2ccccc2)CCCC4)c1C` (centres undefined), the activation was inactive: -33.5%. Turning to `Cc1ccc(C(=O)c2cn(CC(=O)Nc3ccc(C)cc3Cl)c3nc(C)ccc3c2=O)cc1`, the activation was inactive: 7.12%. In the case of `CCOc1cc(CNC(=O)c2ccc3c(c2)NC(=O)C2CCCCN32)cc(OCC)c1OCC` (centres undefined), the activation is inactive: 19.3%. As to `Cc1ccc(Cl)cc1N1CCN(C(=O)c2ccc3c(c2)N(Cc2ccc(F)cc2)CCS3)CC1`, the activation is inactive: -20.1%. The value for `Cc1cn2c(=O)cc(COC(=O)c3ccc(NC(=O)COc4ccccc4F)cc3)nc2s1` was inactive: -13.5%; that for `CCOc1ccccc1OCCCn1c(-c2ccc(Cl)cc2)nc2ccccc2c1=O` was inactive: -10.2%. As for `Cc1cc(C)cc(-n2c(-c3ccccc3)c(C)n3c4c(=O)n(C)c(=O)n(C)c4nc23)c1`, the activation was inactive: 2%. `CCCCn1cc2c(c1-c1ccc(Cl)cc1)c(=O)n(C)c(=O)n2C`: the activation was inactive: -23.9%. Take `COc1cc(OC)c(Nc2nc3ccc(C(=O)c4ccccc4)cc3n3c(C)nnc23)cc1Cl`: the activation is inactive: 2.58%.

(Values after PubChem BioAssay AID1346428 (National Center for Advancing Translational Sciences (NCATS), 2018).)
